Data: PubChem BioAssay AID624417 (National Center for Advancing Translational Sciences (NCATS), 2012)
The whole screen tested about 410,000 compounds, of which about 6,400 (1.6%) were called active. The shares of active, inactive and inconclusive entries below differ from those in the screen. Calls come from the whole dose curve; as a rule, active = well fitted inhibition curve with a large enough effect; inconclusive = small, poorly fitted or top-dose-only effect; inactive = no such curve, though single readings can be large or run the other way. Potencies of inconclusive entries are left out as doubtful fits.

Molecular target: Glucagon-like peptide 1 receptor (Homo sapiens) (UniProt P43220)
Assay: qHTS of GLP-1 Receptor Inverse Agonists (Inhibition Mode); note: nearly all actives have a fitted effect of over 55% in size
Details: HEK293 GLP-1R CRE-luciferase, luminescence, 24 h, GLP-1R form is constitutively active; activity change, negative = inhibition: at 38.3 µM (top of the series) unless noted
Outline: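 Stable HEK293 clone (constitutively active GLP-1R + cAMP-response luciferase); 200 cells/uL plated, 12 h pre-culture, compound 24 hr, 37 deg C/5% CO2; detection reagent 12 min RT; luminescence.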
% is set by controls: 0 for no effect and ±100 for the full control effect; potency is the fitted concentration of half-maximal effect; tags give direction and shape of the fitted curve.

Sequence of UniProt P43220 (P43220 whole entry, looked up): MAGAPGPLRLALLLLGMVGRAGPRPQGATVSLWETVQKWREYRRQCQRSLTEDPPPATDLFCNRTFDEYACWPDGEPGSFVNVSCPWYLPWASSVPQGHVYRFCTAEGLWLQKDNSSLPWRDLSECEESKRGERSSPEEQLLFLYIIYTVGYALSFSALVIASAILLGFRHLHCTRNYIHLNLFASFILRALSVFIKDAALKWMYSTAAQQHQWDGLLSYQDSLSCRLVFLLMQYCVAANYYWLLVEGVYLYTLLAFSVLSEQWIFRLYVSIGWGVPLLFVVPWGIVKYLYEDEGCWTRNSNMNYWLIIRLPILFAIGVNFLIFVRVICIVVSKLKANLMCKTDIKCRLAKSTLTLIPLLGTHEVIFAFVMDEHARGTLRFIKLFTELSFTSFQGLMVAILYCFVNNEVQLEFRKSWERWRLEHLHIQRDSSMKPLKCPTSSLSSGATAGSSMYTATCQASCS

| SMILES | activity change, negative = inhibition | Potency |
| --- | --- | --- |
| CCN(CC)C(=O)CSc1nc2sc3c(c2c(=O)n1CCOC)CCC3 | inactive: 0.938% | – |
| O=C(CC12CC3CC(CC(C3)C1)C2)N1CCCC1 | inactive: -23.4% | – |
| Cc1ccccc1N=C1c2cc([N+](=O)[O-])ccc2-c2ncccc21 | inactive: 2.59% | – |
| Cc1ccc(NC(=O)CSCC(=O)Nc2cc(Cl)ccc2N2CCOCC2)cc1 | – | inconclusive [inhibitor, partial curve, poor fit] |
| CCN(CC(=O)NCc1cccs1)C(=O)CCCOc1ccc(C(C)(C)C)cc1 | – | inconclusive [inhibitor, single point] |
| Cc1nc(-c2ccccn2)nc(SCC(=O)c2ccccc2)c1Cl | – | inconclusive [inhibitor, partial curve, poor fit] |
| Cc1ccccc1-c1nnn(CC(=O)c2ccc(S(=O)(=O)N3CCCC3)cc2)n1 | – | inconclusive [inhibitor, single point] |
| Cc1cccc(NC(=S)NC2CCCC2)c1C | inactive: -22.1% | – |
| Cc1ccc(C(=O)CC2(O)C(=O)N(CCc3ccccc3)c3ccc(Br)cc32)cc1 (stereo not given) | – | inconclusive [inhibitor, single point] |
| O=C(Nc1cccc(Cl)c1)N1N=CCC1c1ccccc1 (stereo not given) | – | inconclusive [inhibitor, single point] |
| Cc1onc(-c2c(Cl)cccc2Cl)c1C(=O)N1CCc2ccccc2C1 | – | inconclusive [inhibitor, partial curve, poor fit] |
| CCCCn1c(SC(C)C(=O)NCC2CCCO2)nc2cc(C(=O)OC)ccc2c1=O (stereo not given) | – | inconclusive [inhibitor, partial curve, poor fit] |
| Cc1nc(CC(=O)Nc2ccc(C(N)=O)cc2)cs1 | inactive: 11.2% | – |
| O=C(Nc1cc(Br)ccc1O)C1CC(c2ccccc2Cl)=NO1 (stereo not given) | – | inconclusive [inhibitor, single point] |
| O=C(NC1CCCC1)c1ccc2c(c1)N(Cc1ccccc1)CCS2 | inactive: 17.4% | – |
| O=C(NCC1(N2CCCCC2)CCCCC1)c1ccc(S(=O)(=O)N2CCCC2)cc1 | – | inconclusive [inhibitor, single point] |
| Cc1csc(NC(=O)CSc2nc3ccccc3c3c2CCCC3)n1 | – | inconclusive [inhibitor, single point] |
| CCOc1ccccc1CNC(=O)CCc1cn(C)c2ccccc12 | – | active: 7.08 µM |
| Cc1ccc(-c2[nH]ncc2CNCCc2cnn(-c3ccccc3)c2)cc1C | – | inconclusive [inhibitor, single point] |
| COc1ccc(C(=O)NC2CC2)cc1OC1CCN(Cc2cc(C)cc(C)c2)CC1 | – | inconclusive [inhibitor, partial curve, poor fit] |
